Assay results as given in the RNAGym collection of RNA variant scans (doi:10.7554/elife.90254).
The source gives no read counts; variants with many changes may rest on few reads.

B1: LINE1-mini (parent)
chain: GGCAGAGCUCAACACAGCGUGGCAAAGUGGCUGUGGCUAGACUGCC

Variants of: B1
Experiment: self-cleavage, relative activity (ratio to wild type); higher = more cleavage; in vitro, sequencing; the parent is a self-cleaving ribozyme

| Variant | self-cleavage |
| --- | --- |
| C3G A12G U20C G29C G30A | 0.08 |
| C3G U9G C37U | 0.23 |
| C3U A4G C45G | 0.06 |
| C3G G5A A12C C23U A26G G29C | 0.01 |
| C3G C10A A16U C42G C46G | 0.01 |
| C3A G33C U38C | 0.03 |
| C3G U28A C46U | 0.1 |
| C3G A16U G19U C23A | 0.03 |
| C3G G33A C45A | 0.05 |
| C3G G22U G27A G36A C37G A41U | 0.01 |
| C3U A4U G17U G30A | 0.15 |
| C3G G7A G19U | 0.57 |
| C3U A4C G29U G33C C45U | 0 |
| C3A G30C U32C G40U C46U | 0.15 |
| C3G A6C A16C G22U C31U | 0.03 |
| C3G C10A G21U | 0.02 |
| C3U A14U C18U | 0.1 |
| C3G C15A U38A | 0.18 |
| C3U A14G A26C U34C | 0.05 |
| C3G A12G C13A | 0.08 |
| C3A U34C G44A | 0.42 |
| C3G G19C A24C | 0.06 |
| C3G C18G G30A U32G G35C | 0.06 |
| C3G C10U G22U U34G A41G | 0.04 |

| Variant | self-cleavage |
| --- | --- |
| C3U A26U U38G | 0.03 |
| C3A U20G C37A G44A | 0.11 |
| C3A U9G G30C | 0.21 |
| C3G C31A C37U | 0.21 |
| C3G A4G C8U G21A C31G A39C G40U | 0.05 |
| C3G G22C C23A A25C C37U | 0.04 |
| C3G U9C C42U | 0.07 |
| C3G A12U G22U G30C U38C | 0.68 |
| C3G G33U C45U | 0.22 |
| C3G A16U G21A A24G G27C | 0.1 |
| C3G C31U C37G | 0.05 |
| C3G U20G G40U | 0.24 |
| C3G C15A U32G | 0.04 |
| C3U A12C A16U C18G U38C | 0 |
| C3G C23A A26U G29A | 0.83 |
| C3U A14C G29U | 0.28 |
| C3G A14G G17A G33C | 0.03 |
| C3G G33U C42A | 0.04 |
| C3G C42G U43G | 0.07 |
| C3A U9G G17C | 0.01 |
| C3G C13G A14C G40U C46U | 0.04 |
| C3G A14U G19U C46G | 0.27 |
| C3U A4G C23A | 0.09 |
| C3U A24U U38G C46G | 0.01 |

| Variant | self-cleavage |
| --- | --- |
| C3G C8A C13A C37A U43C | 0.07 |
| C3G C15G G36U | 0.09 |
| C3U A6G A25G | 0.05 |
| C3G G5A G7A | 0.33 |
| C3G C15A C37U | 0.13 |
| C3G A4G C13G U28G C42G | 0.21 |
| C3U A12C A16C G35C | 0.02 |
| C3G C15G U28G | 0.01 |
| C3A U20C C23A G29A A39G | 0.82 |
| C3G A4G A12U G17U G29U | 0.1 |
| C3G G30C G33C C37U | 0.06 |
| C3A U9A A25U G33U U38C C42A | 0.38 |
| C3G C13G G27C A39U | 0.25 |
| C3G A26U G33A U38A | 0.15 |
| C3G C8G U34C G44C | 0 |
| C3G C13A G40A | 0.13 |
| C3G C18G G22C C31A | 0.04 |
| C3G C13G G19C A39G | 0.15 |
| C3G G5C U20A G22A C45U | 0.05 |
| C3G A6U A24C U28A C31A U34C | 0.05 |
| C3U A14G U20C A26U | 0.49 |
| C3U A6U U9A G19U G21U G22A U32A C37A C46A | 0.42 |
| C3G A4U A26G C42G | 0.01 |
| C3U A12G C15G C37G | 0.41 |

| Variant | self-cleavage |
| --- | --- |
| C3G A14G G44A | 0.5 |
| C3U A16C G17C G19U C37U C42U | 0.06 |
| C3G U20G U32G | 0.05 |
| C3G G27A G44U | 1.17 |
| C3G G19A U38C C45G | 0.92 |
| C3G C8U U32C | 0.14 |
| C3G A4U A11G G30C U34A | 0.03 |
| C3U A14C G44A C46G | 0.05 |
| C3U A11G G19A | 0.04 |
| C3G C15U G29U | 0.47 |
| C3A G33U C37G | 0.18 |
| C3G U9A A12U U20C A39G | 0.1 |
| C3U A14C G21U | 0.16 |
| C3U A24G G40C | 0.02 |
| C3U A6C G30A G36C | 0.1 |
| C3U A6G A14C | 0.11 |
| C3A G35A C42A | 0.07 |
| C3G C8G G22C | 0.31 |
| C3U A6G A11C G21U | 0.01 |
| C3G A4G G7U C8G U9A | 0.12 |
| C3G C8U A11C G30U G33U C37A C42G | 0.04 |
| C3U A6U C13A A25C A41C | 0.03 |
| C3G A6G C15A G17C A25U G30A G40A U43A | 0.07 |
| C3A U20G G30U C31A | 0.13 |

| Variant | self-cleavage |
| --- | --- |
| C3G C15A C18G A39U U43G G44A | 0.01 |
| C3G U9G C31G G33U C37U | 0.11 |
| C3U A6U G44U | 0.51 |
| C3U A16U A25U G29A | 0.05 |
| C3G U9G C45U | 0.35 |
| C3U A4G C8U A24U | 0.03 |
| C3A G40U A41U | 0.21 |
| C3A G35U C37A | 0.23 |
| C3U A12U G19U A24C U32C | 0 |
| C3G G5U G7C G22U G33C | 0.01 |
| C3G A14U C42U | 0.27 |
| C3U A6G G30A U34A | 0.11 |
| C3A U9G A12U U32C G35A | 0.47 |
| C3G U9C G19A G21A G35A | 0.03 |
| C3U A4C G5C C18G C46A | 0.03 |
| C3G C18A A24C U28G C31A G40U A41C | 0.03 |
| C3G G7U C8G A12C G44A C46U | 0.02 |
| C3G A4U C31A G33U | 0.03 |
| C3U A16C A26U | 0.01 |
| C3G G17A C23U A26U G30A C42G C45U | 0.08 |
| C3G C15G A25C A26U G33U | 0.05 |
| C3G A11C G17C | 0.04 |
| C3A U9A C13A G22A U34A | 1.44 |
| C3G A16C G21A C23G U38A A39G | 0.34 |

| Variant | self-cleavage |
| --- | --- |
| C3G A12C C18U G40U | 0 |
| C3U A16U A39G | 0.1 |
| C3G A11G A25U G30C A39G | 0.01 |
| C3G A11U U38C | 0.04 |
| C3U A6C G21U U38G G44C | 0.01 |
| C3U A16G G21A G44A | 0.86 |
| C3A G33A U34C | 0.26 |
| C3U A6G C18U | 0.04 |
| C3U A14C G35U | 0.07 |
| C3G G21A A39U G44U | 0.19 |
| C3A U9A A16U G19U | 0.08 |
| C3U A14U C23A | 0.06 |
| C3G A6U A24U C46U | 0.83 |
| C3G C15A G29U G44U C46G | 0.08 |
| C3G C8A U32G G44U C45G | 0.52 |
| C3G U20C U34A | 0.03 |
| C3A U38A C42U | 0.04 |
| C3U A16G U32G | 0.1 |
| C3U A16G U32A | 0.02 |
| C3U A11U A25C | 0.02 |
| C3G C31G C37G | 0.04 |
| C3G C31G C37U | 0.28 |
| C3G U9C C31U G35U G40C C42U G44C | 0.02 |
| C3G A11G C15A A26G U34C | 0.01 |

| Variant | self-cleavage |
| --- | --- |
| C3U A11U A24U A25G G33A U38G | 0.03 |
| C3G C23G G27A G33C | 0.04 |
| C3G A24C G40A | 0.06 |
| C3G C13G G22C A41C | 0.02 |
| C3G C13A A39G | 0.17 |
| C3G G7A A39C | 0.11 |
| C3G C10G A14U G30U | 0.01 |
| C3G A12C G33A | 0.03 |
| C3G A14G G35U C37A U43C C45U C46A | 0.13 |
| C3U A4C C10U G19A | 0.09 |
| C3U A14U C23U G44U | 0.1 |
| C3G G5A A12G G17A C18A G21A | 0.01 |
| C3U A16U U20G A26C G35U | 0.06 |
| C3G G17A C18U A39G C42A | 0.03 |
| C3G A11G C15A | 0.06 |
| C3U A6G G19U G36A | 0.02 |
| C3G G7U C15G C18U C23U G27A A39G | 0.06 |
| C3A G40A C42G U43C | 0.04 |
| C3G G33C C45U | 0.08 |
| C3G U28C G40U A41C C46U | 0.06 |
| C3G G17A C18A G19U | 0.07 |
| C3U A6C C13U C18U G44C | 0.1 |
| C3G A25G A41U | 0.07 |
